Consider 71 molecules from PubChem BioAssay AID1240 (Sanford-Burnham Center for Chemical Genomics, 2008).

Each structure is given as a SMILES string. The campaign covered roughly 50,000 compounds. About 800 (1.6%) showed an effect of 50% or more. Some of the results follow.

The test deals with Bcl-2-like protein 10 (Homo sapiens) (UniProt Q9HD36). As to the kind of experiment: TR3 peptide-Bcl-B binding displacers, biochemical primary FP assay, phenotype converters (AID 1240).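 Further: 0% = Bcl-B with tracer peptide and DMSO and 100% = tracer peptide lacking Bcl-B.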 The settings on record: GST-Bcl-B / FITC-TR3 peptide fluorescence polarization; stronger effect = higher value; compound at 3.75 mg/L.
Chain of UniProt Q9HD36 (Q9HD36 whole entry, looked up): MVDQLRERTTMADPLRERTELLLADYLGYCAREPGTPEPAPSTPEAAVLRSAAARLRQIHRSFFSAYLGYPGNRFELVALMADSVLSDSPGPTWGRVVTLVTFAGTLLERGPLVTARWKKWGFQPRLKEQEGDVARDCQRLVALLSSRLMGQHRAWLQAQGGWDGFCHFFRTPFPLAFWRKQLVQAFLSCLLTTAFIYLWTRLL
Consider `C=CCOC(=O)C1=C(C)NC(C)=C(C(=O)OCC=C)C1c1ccc(N(C)C)cc1`, for which the displacement was found to be 15.9%. The same measure for `CC(=O)c1cccc(NC(=O)c2ccc(C)c(C)c2)c1`: 1.4%. In the case of `O=c1oc(COc2ccccc2Cl)nc2ccccc12`, the displacement was 0.4%. To `O=C(COc1ccc2c(c1)oc(=O)c1ccccc12)OCc1ccccc1` belongs 7.5%. As to `Cc1ccc(/C=C2/SC(=S)N(NC(=O)c3ccccc3Br)C2=O)o1`, the displacement was found to be 28.3%.

As to `CCN1C(=O)/C(=C\c2ccc(-c3ccc([N+](=O)[O-])cc3Cl)o2)SC1=S`, the displacement is 19.5%.

For `O=Cc1cc(Cl)c(OCc2ccccc2Cl)c(Cl)c1`, the displacement is -1.6%. The same measure for `O=C(c1ccco1)N(Cc1ccccc1)C(Cc1ccccc1)c1cccs1` (stereo unspecified): 6.6%; for `COc1ccc(S(=O)(=O)Nc2ccc(S(N)(=O)=O)cc2)cc1`: 3.3%. Turning to `CCCc1cc(=O)oc2cc(C)cc(OCC(C)=O)c12`, the displacement amounted to 9.2%. The same measure for `O=C(Nc1cccc(Cl)c1)c1cccc(NC(=O)c2ccc(Cl)cc2Cl)c1`: -16.3%; for `CS(=O)(=O)c1ccc2nc(NC(=O)c3cc(-c4ccccc4)nc4ccccc34)sc2c1`: -2.6%. With `O=C(CSc1ccccc1)Nc1nnc(CCC(=O)c2ccccc2)s1`, the displacement is -5.3%. The same measure for `COc1ccc([N+](=O)[O-])cc1NC1CCC(c2ccccc2)CC1` (stereo unspecified): 31.5%; for `COc1ccc(/C(C)=N/NC(=O)CSCc2cccc(Cl)c2)cc1OC`: -11.5%.

As to `O=C(CCCN1C(=O)c2ccccc2C1=O)Nc1cccnc1`, the displacement came to 20.6%. `COc1ccc(CC(=O)N=Nc2c(O)n(CN3CCN(C)CC3)c3ccccc23)cc1`: the displacement is -3%. As to `Cc1ccc(S(=O)(=O)N2CCN(C(=O)COc3ccccc3)CC2)cc1`, the displacement is -2.9%. For `O=C(Nc1cccnc1)c1cnn2c(C(F)(F)F)cc(-c3cccs3)nc12`, the displacement was -13.9%.

For the molecule `Cc1ccc(/C=N/NC(=O)/C(=C\c2ccc3c(c2)OCO3)NC(=O)c2ccccc2)o1`, the displacement is -18.2%.

`COc1ccccc1N1CCN(C(=O)COc2ccccc2)CC1`: the displacement amounted to 3%. For `CCOc1ccc(CN2CCN(S(C)(=O)=O)CC2)cc1`, the displacement is 12.7%. To `COCCNC(=O)C(=O)Nc1ccccc1C` belongs 12.1%; to `COc1cc(/C=C2/SC(=S)N(c3ccccc3)C2=O)cc(Cl)c1OCc1ccccc1`, 13.4%. `CCCCNCCOCCOc1ccc(OC)cc1`: the displacement was -4.2%. As to `Oc1ccc(Br)cc1C=Nc1ccc(Cl)c2cccnc12`, the displacement is -7.3%. As for `N#Cc1c2n(c3c(NCCCO)ncnc13)CCCCC2`, the displacement is -8.3%. Turning to `O=C(O)c1ccc(N2C(=O)CC(Cc3ccc(Cl)cc3)C2=O)cc1` (stereo unspecified), the displacement came to 13.8%. For the molecule `O=C1NC(=S)N/C1=C/c1ccc(-c2cccc(Cl)c2Cl)o1`, the displacement was determined as 12.4%. Turning to `COc1ccc(NC(=O)C2CC(=O)N(c3ccccc3)C2)cc1` (stereo unspecified), the displacement was -2.5%.

`CCCCCCN1C=CC(=C2C(=O)c3ccccc3C2=O)C=C1`: the displacement is -4.8%. Turning to `CCOc1ccc(/C=N/N2CCN(c3ccccc3OC)CC2)cc1OC`, the displacement is 8%. `COc1ccc(/C=C/C(=O)NCc2ccccc2C)cc1`: the displacement stood at 0.8%. The same measure for `COCCNC(=O)CN(c1cccc([N+](=O)[O-])c1)S(=O)(=O)c1ccccc1`: -7.8%; for `CCC(=O)Nc1c(-c2ccccc2)nc2ccc(C)cn12`: 10.8%. Regarding `O=C(c1cccs1)N(Cc1ccccc1)Cc1ccccc1`, the displacement is -5.4%. For the molecule `O=C(Nc1ccc([N+](=O)[O-])cn1)c1cc(-c2ccc(Cl)c(Cl)c2)nc2ccccc12`, the displacement was determined as 52.4%. To `Cc1cc(=O)oc2c(C)c(OCc3ccccc3)ccc12` belongs -3.1%; to `COc1cc(/C=C2\C=C(c3ccc(Br)cc3)OC2=O)c([N+](=O)[O-])cc1OC`, 55%; to `Cc1cc(I)ccc1NC(=O)/C=C/c1ccccc1Cl`, 8.7%. The same measure for `CN(C)/C=C/c1oc2ccc(Oc3ncccc3C#N)cc2c1[N+](=O)[O-]`: -10.4%. As for `CCOc1ccccc1C(=O)Nc1sc2c(c1C(=O)OC)CCCC2`, the displacement was 7.8%.

As to `COc1ccc(/C=C2/C(=O)N(c3cccc(C(F)(F)F)c3)N=C2C)cc1OC`, the displacement was -3.3%.

With `COc1cccc(C(=O)Nc2ccc3nn(-c4ccc(Cl)cc4)nc3c2)c1`, the displacement was found to be 26.8%. The same measure for `CCN(CC)CCNc1c(N)c(=O)oc2ccccc12`: 6.6%.

Turning to `O=C(NN1C(=O)/C(=C/c2ccccc2)SC1=S)c1ccccc1Br`, the displacement stood at 2.6%. Turning to `Cc1ccc(C(C)C)c(OCCN)c1`, the displacement was 10.3%. Take `C/C(=N\N1CCN(c2ccccc2)CC1)c1ccccc1O`: the displacement is 15.8%. On to `COc1ccccc1OCC(=O)NCCc1nc2ccccc2[nH]1`, for which the displacement came to 5.2%. Consider `CCOC(=O)c1c(NC(=O)COc2ccc(Cl)cc2)sc2c1CCC2`, for which the displacement was found to be 20.3%. For the molecule `O=C(Nc1cccc([N+](=O)[O-])c1)C1C2C3CCC(C3)C12` (stereo unspecified), the displacement was determined as 5.1%. The same measure for `O=C(Nc1c(C(=O)N2CCCCC2)cnn1-c1ccccc1)c1ccccc1Cl`: 15%; for `CC(C)=C1C2C=CC1C1C(=O)N(c3cccc(Br)c3)C(=O)C21` (stereo unspecified): -0.9%.

On to `O=C(O)C1C2CCC(C2)C1C(=O)Nc1nncs1` (stereo unspecified), for which the displacement is 0.3%. The same measure for `Cc1ccc(-n2c(-c3cccc(C)c3)n[nH]c2=S)cc1`: -2.1%. Consider `O=C(N/N=C/c1cccc([N+](=O)[O-])c1)c1cc(-c2ccc(Cl)cc2)n[nH]1`, for which the displacement was -13.4%.

Take `O=C(Cc1ccc(-c2ccccc2)cc1)NNC(=O)c1ccc(Cl)cc1`: the displacement is -10%. Turning to `O=[N+]([O-])c1ccc(N/C(=N/S(=O)(=O)c2ccc(Cl)cc2)c2ccccc2)cc1`, the displacement came out at 12.1%. `CCCCOC(=O)c1ccc(NC(=O)COc2ccc([N+](=O)[O-])cc2)cc1`: the displacement was 31.5%.

Turning to `O=C(O)CC1S/C(=N/N=C/c2ccco2)NC1=O` (stereo unspecified), the displacement is -7.1%.

As for `COc1cc(OC)cc(C(=O)N2CCN(Cc3ccc([N+](=O)[O-])cc3)CC2)c1`, the displacement was -5.5%. Turning to `Cc1ccc(Cc2cnc(NC(=O)C3CCCO3)s2)cc1` (stereo unspecified), the displacement turned out to be 16.8%. Consider `Cc1nn(-c2ccccc2)c(C)c1/C=N/NC(=O)c1cc(-c2ccc(Cl)cc2)n[nH]1`, for which the displacement is -8%.

Regarding `Cc1ccc(NC(=O)/C(C#N)=C/c2ccc(N(C)C)o2)cc1C`, the displacement is -130%. For `CC(Oc1ccc2ccc(=O)oc2c1)C(=O)c1ccccc1` (stereo unspecified), the displacement is 8.3%.

`CC1=NN(c2cccc(C(=O)O)c2)C(=O)/C1=C\c1ccco1`: the displacement was 6.5%. The same measure for `COc1ccc(/C=N\NC(=O)c2ccc(Br)cc2)cc1I`: 6.2%. In the case of `CC(C)c1ccc(CNC(=O)CSc2nc3ccccc3s2)cc1`, the displacement was -4.6%. As for `COc1ccc(OC)c(NC(=S)NC(=O)c2ccc(Cl)cc2)c1`, the displacement was 1.6%. The same measure for `CCn1c2ccccc2c2cc(CN3CCN(Cc4cc(OC)c(OC)cc4OC)CC3)ccc21`: 10.1%; for `CN(C)c1cccc(C(=O)N2CCN(c3cccc(Cl)c3)CC2)c1`: 0.2%.
